According to PubChem BioAssay AID1963576 (National Center for Advancing Translational Sciences (NCATS), 2024):
In all, about 46,000 compounds went through this assay and about 60 (0.1%) were called active. Another 3% or so got no clear call; they are omitted. Calls come from the whole dose curve; as a rule, active = well fitted inhibition curve with a large enough effect; inconclusive = small, poorly fitted or top-dose-only effect; inactive = no such curve, though single readings can be large or run the other way. Some of the results follow.

assay: Primary qHTS assay for Inhibitors of ovarian cancer metastasis using an organotypic tumor microenvironment (TME) model.; note: nearly all actives have a fitted effect of over 65% in size;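 for activity change, negative = inhibition: plate controls were DMSO wells for no effect and tomatine positive control wells for full effect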; settings: SKOV3ip1-GFP adhesion/invasion on 3D omental model, fluorescence; series mostly up to 45.8 µM; activity change, negative = inhibition: at the top concentration
How it was run: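 Primary human omental fibroblast/mesothelial 3D culture pre-formed 48 h. SKOV3ip1-GFP cells added with compounds (0.36-46 umol/L), incubated 2 h RT/16 h 37 C, fixed; GFP cells quantified at 488/509 nm.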

Structure (SMILES)	activity change, negative = inhibition	outcome
O=C(Nc1ccc(C(=O)OCc2cc(=O)n3c4c(sc3n2)CCCC4)cc1)c1ccc(Cl)cc1	inactive: -27.3%	–
COc1cc2ccccc2cc1C(=O)Nc1ccc2oc(-c3ccc(Cl)cc3)nc2c1	–	inactive
CCOC(=O)c1ccc(NC(=O)Cn2ncc3c(C)n(Cc4ccccc4F)c(C)c3c2=O)cc1	inactive: -11.8%	–
COC(=O)c1ccc(NC(=O)Cn2c(=O)nc(-c3ccccc3)c3ccccc32)cc1	–	inactive
Cn1cc(C(c2ccccc2)c2ccc(Cl)s2)c2ccccc21 (centres undefined)	inactive: -18.3%	–
Cc1ccc(N2C(=O)CSC23C(=O)N(CC(=O)NC2CCCCC2)c2ccccc23)cc1C (centres undefined)	inactive: -3.11%	–
CCOc1ccccc1NC(=O)CN1C(=O)COc2ccc(S(=O)(=O)N3CCCCC3)cc21	inactive: -9.26%	–
O=C(c1ccc(Br)s1)N(Cc1cccnc1)c1nc2ccc(F)cc2s1	–	inactive
CCOc1cccc(NC(=O)C2CC(=O)N(C)C(=Nc3ccc(F)cc3)S2)c1 (centres undefined)	inactive: 2.44%	–
CSc1ncc(C(=O)NCc2ccc(C)cc2)c(-c2ccccc2)n1	inactive: 3.12%	–
Cc1ccc(CNC(=O)C2CCN(S(=O)(=O)c3c(C)noc3/C=C/c3c(C)cc(C)cc3C)CC2)cc1	–	inactive
Cc1ccc2nc(COc3ccccc3NC(=O)COc3ccccc3Cl)cc(=O)n2c1	–	inactive
CCOC(=O)c1c(C)oc2ncnc(Nc3cc(Cl)ccc3OC)c12	inactive: -15.1%	–
O=C(c1cccn1-c1nnc(N2CCCCC2)s1)N1CCN(c2ccccc2)CC1	inactive: -3.1%	–
COC(=O)CN1C(C(=O)c2ccccc2)=C(OC(=O)c2ccc(C)cc2)c2ccccc2S1(=O)=O	–	inactive
Clc1cccc(CSc2ccc(-c3cccs3)nn2)c1	inactive: 6.51%	–
COc1ccccc1Cn1c(SCC(=O)C(C)(C)C)nc2ccccc2c1=O	inactive: 4.87%	–
CCOc1ccccc1CNC(=O)CCCN1C(=O)c2cccnc2Oc2ccc(Cl)cc21	inactive: -4.73%	–
CCOC(=O)c1c(C)oc2nc(C)nc(N3CCN(c4ccc(OC)cc4)CC3)c12	inactive: 6.49%	–
CCNC(=O)C1CCN(Cc2cc3ccccc3n2Cc2ccc(C)cc2)CC1	inactive: -9.14%	–
CC(C)C[C@H](NC(=O)[C@H](Cc1ccccc1)NC(=O)c1cnccn1)B(O)O	inactive: -20%	–
Cc1oc(-c2cccc(Cl)c2)nc1CSCC(=O)NCc1ccccc1Cl	inactive: 9.43%	–
COc1ccc(CNC(=O)CCCN2C(=O)c3cccnc3Oc3ccc(Cl)cc32)cc1	–	inactive
CCOC(=O)C1CCN(C(=O)Cn2ncc3c4ccccc4n(C)c3c2=O)CC1	inactive: 1.79%	–
N#Cc1ccc(CSc2nnc(-c3ccc(Br)cc3)o2)cc1	inactive: 29.8%	–

Structure (SMILES)	activity change, negative = inhibition	outcome
CCS(=O)(=O)c1ccccc1C(=O)N1CCN(c2nc3ccccc3s2)CC1	inactive: -8.46%	–
CCn1c(=O)c2sccc2n2c(CCC(=O)NCc3ccc(Cl)cc3)nnc12	inactive: 6.03%	–
CCCCNC(=O)Cn1cnc2sc(C)c(S(=O)(=O)N3CCN(c4ccccc4OC)CC3)c2c1=O	inactive: 3.9%	–
Cc1cccc(NC(=O)c2cc3c(=O)n4ccccc4nc3n2C)c1C	inactive: -9.24%	–
COc1ccccc1NC(=O)c1ncoc1-c1ccco1	inactive: -11.3%	–
CC(C)OCCCNC(=O)CN1C(=O)COc2ccc(S(=O)(=O)N3CCOCC3)cc21	inactive: -6.46%	–
Cc1csc2nc(COC(=O)c3ccc(NC(=O)C(C)C)cc3)cc(=O)n12	inactive: 4.55%	–
Cc1ccc(OCC(=O)Nc2sc3c(c2C(N)=O)CCCC3)c(C(C)(C)C)c1	inactive: 0.955%	–
COCCNC(=O)c1ccc(-c2nc(CN3CCc4ccccc43)c(C)o2)cc1	inactive: 1.6%	–
Cc1cccc(NS(=O)(=O)c2nnc(NC(=O)c3cccc(C)c3)s2)c1	–	inactive
Cc1ccc(-n2c(SCC(=O)Nc3ccc4c(c3)OCCO4)nc3c([nH]c4ccccc43)c2=O)cc1	inactive: -0.911%	–
CCOc1ccccc1C(=O)N(Cc1ccco1)Cc1ccccc1F	inactive: -1.51%	–
Cc1ccc(C(=O)Nc2ccc(Br)cc2)cc1S(=O)(=O)NCc1ccccc1	inactive: -10.4%	–
COC(=O)c1ccccc1NC(=O)CSc1nc2nc(C)cc(C)n2n1	inactive: 6.4%	–
CCOc1ccc2nc(NC(=O)c3ccccc3)sc2c1	inactive: 0.0812%	–
O=C(Cn1ncc2c3ccccc3n(Cc3ccccc3F)c2c1=O)NCCCc1ccccc1	–	inactive
CCOc1ccc(NC(=O)C(=O)NCCc2ccccc2)cc1	inactive: 26.9%	–
CCc1ccc(S(=O)(=O)Nc2cc3c(cc2N2CCOCC2)n(C)c(=O)c(=O)n3C)cc1	inactive: 15.2%	–
CCc1nc2ccc(C(=O)NCc3cccc(Br)c3)cc2nc1CC	–	inactive
O=c1c(N2CCCCC2)csc2ccc(F)cc12	inactive: 13.8%	–
CCOc1ccc(NC(=O)CC2C(=O)N(c3ccccc3)C(=O)N2Cc2cccc(OC)c2)cc1 (centres undefined)	inactive: 8.21%	–
Cc1cc(C)cc(NC(=O)CCCn2c(=O)c3cccn3c3ccccc32)c1	–	inactive
COCCCNC(=O)c1nn(-c2ccc(C)cc2)c(=O)n(C)c1=O	inactive: 5.61%	–
O=C(c1cnc(N2CCCCC2)c2ccccc12)N1CCN(c2cccc(Cl)c2)CC1	inactive: 5.25%	–
